Experimental data published in publication PMC6451091.
Some of the results follow. Measured with an extract: partners may take part in the binding.

biological target: T1, FLI1 (endogenous, THP-1 nuclear extract) (UniProt Q01543); experiment: nuclear extract protein-binding microarray (nextPBM); settings: 20 mM HEPES pH 7.9, 100 mM NaCl, 1 mM DTT, 0.2 mg/mL BSA, 0.02% Triton X-100, 2% milk, 0.4 mg/mL salmon testes DNA; 1 h; temperature not stated; high values mean tight binding; double strand, one strand shown; sequences stand for … in GCCTAGCAC…GTGCTAGGTCTTGATTCGCTTGACGCTGCTG
T1 sequence: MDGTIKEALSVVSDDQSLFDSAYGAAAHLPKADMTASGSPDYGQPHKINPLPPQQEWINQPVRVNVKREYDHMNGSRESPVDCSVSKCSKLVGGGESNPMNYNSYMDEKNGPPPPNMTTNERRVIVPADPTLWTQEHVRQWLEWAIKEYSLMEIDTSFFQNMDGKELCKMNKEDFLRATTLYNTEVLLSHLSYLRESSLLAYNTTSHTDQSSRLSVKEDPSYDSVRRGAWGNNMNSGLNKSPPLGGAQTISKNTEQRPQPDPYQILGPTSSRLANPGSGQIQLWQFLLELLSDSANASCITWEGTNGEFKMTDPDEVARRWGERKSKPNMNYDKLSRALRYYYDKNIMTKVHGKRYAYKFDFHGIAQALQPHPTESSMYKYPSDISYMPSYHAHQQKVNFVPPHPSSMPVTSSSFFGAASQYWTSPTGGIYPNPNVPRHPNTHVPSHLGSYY

Sequence | binding signal [z-score]
AGAAAAGGGAAGTGAGGGAA | 3.24
TTTTTGAGGAAGTGCAGACT | 2.57
AAAGAAGGGAAGTGACTTGC | 1.89
ATAAAAAGGAAGTGAGATTT | 2.9
CAAAAGCGGAAGTGGTGCCT | 5.35
CCTGTGAGGAAGTGGGGCAG | 1.82
GGGAGGAGGAAGTGCTCTTG | 2.87
CAACTGAGGAAGTGATCTCA | 1.96
AAGAAGAGGAAGTCTATAGC | 2.71
CCAAAGCGGAAGTGTCGGGC | 5.05
CCCATAGGGAAGTGCACTGA | 1.18
TGCAAGGGGAAGTGGTTTTG | 2.5
CAAACAGGGAAGTGGATGCT | 1.99
GAAAACAGGAAATCCCATAG | 3.47
CGAAAGGGGAAGGGCTAAAC | 0.685
TAGAAGAGGAAGTGAGAGAC | 3
CAAAAGAGGAACTCTTTGGT | 2.3
AAGAAAAGGAAGTCCAGCTG | 2.18
AGAAAGGGGAAGTCAATCTG | 3.37
GTGGAGGGGAAGTGGGAGGG | 2

Sequence | binding signal [z-score]
TGAAAGAGGATGTGCAACCA | 1.72
CTTTAGAGGAAGTGTGAGCT | 2.32
GAGAAGGGGAAATACTGTGC | 1.66
GAAAACAGGCAGTCCCATAG | -0.0637
CAAATGAGGGACTGATGCGG | -0.915
ATAAAGAGGAAGTGCTGGAA | 4.21
TAAAAGAGGAAGTCAGTGGG | 3.61
CAAATGAGGAACTGATACGG | 1.83
AAAAAGGGGAAGTACTGCGA | 3.47
CAGAAAAGGAAGTAAGCCAC | 2.55
GGACTGGGGAAGTGGCCTGG | 1.21
GCTATGAGGAACTGAGGGCA | 0.534
TGAAAGAGGGAGTGCAACCA | -1.62
GTTATGAGGAAGTCTGAATA | 2.02
AGCAAGAGGAAGTGAGATGA | 3.02
ACAGAAAGGAAGTGGTCAAC | 2.4
CATAAGAGGAAGTGGCAGTT | 3.23
GCAAAGAGGAAGTGTCTGCT | 3.17
AGAAAGAGGAAGGGGAGGTT | 1.83
